Hit rate of the full screen: of about 340,000 compounds, about 6,900 (2%) were called active. Rule as the data show it: active = inhibition above about 30%; inactive = below that, where a call was filed. This is a selection; strong and weak results do not stand in their true shares. Entries without a call were filed so in the source.

As usually defined, the inhibition is the relative decrease from the control value, in per cent.

The target in this assay is D(2) dopamine receptor (Homo sapiens) (UniProt P14416). Nature of the assay: HTS Assay for Allosteric Antagonists of the Human D2 Dopamine Receptor: Primary Screen for Antagonists. Also: 0% is about no effect. To be noted: HEK293 TREx D2 cells, calcium flux, dopamine EC80; at 10 µM; stronger effect = higher value. In a few lines: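 Read-out: kinetic calcium fluorescence (1 cycle/s) in inducible HEK293 T-REx D2 cells after an EC80 dopamine addition that followed 180 s compound preincubation. Loss of the dopamine response indicates antagonism.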
UniProt P14416, sequence (P14416 whole entry, looked up): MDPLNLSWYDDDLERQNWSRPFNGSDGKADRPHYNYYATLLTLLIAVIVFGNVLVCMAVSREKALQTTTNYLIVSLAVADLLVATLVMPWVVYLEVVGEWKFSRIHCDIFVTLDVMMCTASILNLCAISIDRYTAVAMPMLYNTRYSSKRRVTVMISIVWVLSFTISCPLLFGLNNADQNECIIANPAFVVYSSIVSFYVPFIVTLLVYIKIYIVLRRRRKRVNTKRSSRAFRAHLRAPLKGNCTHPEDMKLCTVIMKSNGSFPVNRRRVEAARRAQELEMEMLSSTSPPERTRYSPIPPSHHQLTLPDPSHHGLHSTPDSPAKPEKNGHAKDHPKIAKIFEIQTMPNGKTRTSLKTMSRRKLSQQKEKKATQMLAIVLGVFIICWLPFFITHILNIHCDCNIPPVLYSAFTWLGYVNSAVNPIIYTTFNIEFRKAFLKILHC
On the technique in general: A change in cytosolic calcium serves as a functional read-out for many receptors and channels.
Consider `O=C(Nc1nc(-c2ccc(Br)cc2)ns1)c1ccc(F)cc1`, for which the inhibition worked out at 6.21%. For `CCOc1cccc(-c2c(C(=O)N/N=C/c3cccs3)nnn2-c2nonc2N)c1` the value was active: 31.8%; for `CC(=O)c1cccc(NC(=O)Cn2c(SCC(=O)Nc3ccc(F)cc3)nc3ccccc32)c1`, 7.5%. The result for `Cn1nc(-c2ccc(Cl)cc2)c2cc(C(=O)NCCCN3CCCC3)sc21` reads active: 33%; that for `Cc1c2cnn(CC(=O)NCc3ccccc3)c(=O)c2c(C)n1Cc1cccc(Cl)c1`, -4.99%. For `CCOc1ccc(-n2c(C)nc3c(cnn3-c3ccc(C)cc3)c2=O)cc1` the value was -7.42%; for `COc1ccc(S(=O)(=O)N(Cc2nc(-c3cccc(C)c3)no2)C2CCCCC2)cc1`, 6.07%; for `Cc1ccccc1Cn1c(SCc2ccc(C(=O)NCc3cccs3)cc2)nc2ccncc21`, -14.8%. Turning to `Cc1cccc(OCc2nnc(SCC(=O)Nc3ccc(C)cc3C)o2)c1`, the inhibition was -11.5%. In the case of `COc1ccccc1N1CCN(S(=O)(=O)c2ccc3c(c2)oc(=O)n3C)CC1`, the inhibition is 0.604%. The result for `CCCSCCCNC(=O)C1CCN(C(=O)c2cc3sccc3n2C)CC1` reads -14.3%. The result for `Cc1ccc(NC(=O)CSc2nc(-c3ccc(F)cc3)cc(C(F)(F)F)c2C#N)cc1` reads -4.27%; that for `O=C(CCn1c(=O)c2cccn2c2ccc(F)cc21)NCc1ccccc1F`, 3.16%; that for `Cc1cccc(NC(=O)Cn2c(=O)n(Cc3ccc(C(=O)NCc4ccc5c(c4)OCO5)cc3)c(=O)c3ccccc32)c1`, 12.4%. Turning to `CCNC(=O)CC1C(=O)N(c2ccccc2)C(=O)N1Cc1ccc(F)cc1` (stereo not drawn), the inhibition was -15.3%.

As for `CCOc1ccc(C(=O)c2cn(CC(=O)Nc3cc(OC)cc(OC)c3)c3ccc(F)cc3c2=O)cc1`, the inhibition is -18.7%. Consider `Cc1ccc(CCNC(=O)CCn2c(=O)c3cccn3c3ccc(F)cc32)cc1`, for which the inhibition is -4.88%. The result for `Fc1cccc(F)c1-c1nc(-c2ccncc2)no1` reads -3.53%.

For `COc1cccc(N(C(C)=O)c2nc(C)cc(C)c2C#N)c1`, the inhibition is active: 36.4%. The result for `Cc1cc(=O)n2nc(N3CCC(C(=O)Nc4ccc(C(C)C)cc4)CC3)sc2n1` reads 3.92%; that for `CC(=O)c1cccc(NC(=O)CCc2c(C)nc3c(-c4ccc(F)cc4)c(C)nn3c2C)c1`, 22.6%. The result for `O=C(Nc1ccccc1)N1CCN(C(=O)c2nsc3ccccc23)CC1` reads -17.7%; that for `Cc1nc(-c2ccc(Cl)cc2)sc1CCNC(=O)c1ccco1`, -4.15%; that for `Cc1ccc(-n2c(=O)c3c4c(sc3n(Cc3ccccc3F)c2=O)CCC4)cc1C`, -11.5%. On to `Cc1coc2cc3oc(=O)c(CC(=O)NCc4ccc(F)cc4)c(C)c3cc12`, for which the inhibition came to 27.7%.

On to `Cc1ccc(O)c(-c2ccnc3cc(-c4ccc(Cl)cc4)nn23)c1`, for which the inhibition was -5.1%. Consider `COc1cc(-c2nc3sccn3c2Nc2cccc(C)c2)ccc1O`, for which the inhibition was 3.13%. The result for `Cc1ccccc1NC(=O)CCc1c(C)nn(-c2ccc(N3CCCCC3)nn2)c1C` reads -2.25%; that for `Oc1ccccc1-c1nc(/C=C/c2ccccc2Cl)no1`, -13.2%; that for `Cc1ccc(Cn2c(=O)n(Cc3nc(-c4ccccc4)no3)c(=O)c3cc4c(cc32)OCO4)cc1`, 6.98%. The result for `COc1ccccc1OCCCn1c(C2CC(=O)N(c3ccccc3Cl)C2)nc2ccccc21` (stereo not drawn) reads -0.489%. For `COc1ccc(C(=O)Nc2ccc3nc(SCc4ccc(C)cc4)sc3c2)cc1` the value was -4.24%.

Consider `COc1ccc(C(=O)Nc2ccc(-c3cc4ccccc4oc3=O)c(C)c2)cc1Br`, for which the inhibition came to 3.41%. For `Cc1ccc(C)c(N2CCN(C(=O)CCCn3ncn4c(cc5occc54)c3=O)CC2)c1` the value was -19.1%; for `CCOc1ccc(CNC(=O)CCn2nc(C)c3c(C)n(-c4ccccc4)nc3c2=O)cc1`, -14%. For `CCc1ccc(-n2c(=O)c3c(C)c(C(=O)N(C)C)sc3n(Cc3cccc(C)c3)c2=O)cc1` the value was 14.2%; for `COc1ccc(N2CCN(CCOc3ccc4c(C)cc(=O)oc4c3)CC2)cc1`, active: 72.3%; for `CN(C)c1ccc(CNC(=O)CCCN2C(=O)CCn3nc(-c4cccn4C)cc32)cc1`, 8.09%. The result for `Fc1ccc(-n2cc(CNCCc3ccncc3)c(-c3ccccc3Cl)n2)cc1` reads active: 31.3%. Take `CCOC(=O)C1CCN(c2nc(-c3ccc(Br)cc3)nc3ccccc23)CC1`: the inhibition is -7.12%. The result for `O=C(Nc1ccc(Cl)cc1)N1CCC(CN2CCCC2)CC1` reads 15.1%; that for `CC(=O)c1cccc(NC(=O)C(Cc2ccccc2)NS(=O)(=O)c2ccc(Br)s2)c1` (stereo not drawn), 11.5%; that for `Cc1cccc(CCNC(=O)Cn2ncc3c(=O)oc4ccccc4c32)c1`, 7.59%.

In the case of `Cc1ccc2c(c1)C(c1ccccc1)N(C(=O)c1ccc(OC(C)C)cc1)CC(=O)N2` (stereo not drawn), the inhibition is -3.57%. The result for `COc1ccc(Cn2cc(C(=O)c3ccc(OC)cc3)c(=O)c3cc4c(cc32)OCCO4)cc1` reads -5.16%; that for `COc1ccc(OC)c(NC(=O)c2cn3c4c(ccc(Cl)c4c2=O)OC(C)C3)c1` (stereo not drawn), 7.56%. The result for `CCCCOc1ccc(C(=O)NCC2(N3CCN(C)CC3)CCCCC2)cc1` reads 5.47%; that for `CCS(=O)(=O)N1CCc2cc(C(=O)Nc3ccc(C)c(Cl)c3)ccc21`, 21.8%; that for `O=C(Nc1nnc(S(=O)(=O)N2CCOCC2)s1)c1cccc(F)c1`, 4.5%. For `O=C1CCc2cc(S(=O)(=O)NCc3ccc(F)cc3)cc3c2N1CC3` the value was 16.8%; for `Cc1ccc(Cc2nc3ccccc3nc2SCC(=O)N2CCN(c3ccccc3F)CC2)cc1`, 6.82%. As to `COc1ccc(C(=O)COC(=O)c2cc(-c3ccccc3)nc3c(C)cccc23)cc1`, the inhibition amounted to 9.05%.

Turning to `Cc1nc2c(-c3ccccc3)c(C)nn2c(C)c1CCC(=O)N1CCN(c2ccccc2)CC1`, the inhibition was 12.3%. On to `CCC(=O)N1CCc2cc(Br)cc(S(=O)(=O)N3CCCC(C(=O)NCc4cccc(OC)c4)C3)c21` (stereo not drawn), for which the inhibition was 24%. For `CC(=O)N1CCCc2ccc(NS(=O)(=O)c3ccc(C)c(C)c3)cc21` the value was -5.36%.

In the case of `Cn1nc(C(=O)N2CCN(c3cccc(Cl)c3)CC2)c2c1-c1ccccc1S(=O)(=O)C2`, the inhibition turned out to be 5.2%. The result for `CC[C@@H](C(=O)[C@@H](C)[C@@H](O)[C@H](C)CCc1ccc(C)c(O)c1C(=O)O)[C@H]1O[C@](CC)([C@H]2CC[C@](O)(CC)[C@H](C)O2)C[C@@H]1C` reads active: 48.9%.

Take `CCc1cc2c(cc3c(=O)n(CC(=O)N4CCC(C)CC4)nc(CC)n32)s1`: the inhibition is -6.13%.

For `CCCS(=O)(=O)c1ncc(Cl)c(C(=O)Nc2c(C(=O)c3ccccc3)oc3ccccc23)n1`, the inhibition came to 3.95%. Take `COc1ccc(CC(=O)NCc2ccc3c(c2)CCN3C(C)=O)cc1OC`: the inhibition was -3.09%. For `CCN(CC)S(=O)(=O)c1ccc2c(c1)c(=O)c(C(=O)NCc1ccc(Cl)cc1)cn2C` the value was 4.29%; for `CCOC(=O)C1CCN(C(=O)c2ccc3c(c2)sc2nc(-c4ccccc4)cn23)CC1`, 13.9%; for `COc1cccc(CNC(=O)C2Cc3cc(S(=O)(=O)N4CCCCCC4)ccc3N2C(C)=O)c1` (stereo not drawn), 4.49%. The result for `Cc1c(C(=O)N(C)C)sc2c1c(=O)n(-c1ccc(F)cc1)c(=O)n2Cc1cc(=O)n2ccccc2n1` reads 6.83%. The result for `CCCCCC[N+](C)(C)CC/C=C1/c2ccccc2Sc2ccc(Cl)cc21` reads active: 75.3%. As for `Cc1ccc(NC(=O)C2C3C=CC4(O3)C2C(=O)N(CCCN2CCOCC2)C4C(=O)NC2CCCCC2)cc1Cl` (stereo not drawn), the inhibition was active: 31.1%. In the case of `Nc1c(C(=O)Nc2ccc(Cl)c(C(F)(F)F)c2)sc2nc(-c3ccncc3)ccc12`, the inhibition was 4.61%.

Regarding `COc1ccc(OC)c(NC(=O)COCc2cc(-c3ccco3)on2)c1`, the inhibition is -22%. The result for `Cc1cc(C)c(Cn2c(=O)n(Cc3ccccc3)c(=O)c3c(C)c(C)sc32)c(C)c1` reads -9.55%.

For `COc1ccc(-n2nc(C(=O)N3CCCCC3)c3c4ccccc4n(C)c3c2=O)cc1Cl`, the inhibition amounted to 2.44%.

With `Cc1ccc(S(=O)(=O)c2nnn(CC(=O)Nc3ccccc3C)c2N)cc1`, the inhibition was -24.3%. For the compound `O=C(O)CC(c1ccc(Br)cc1)N1Cc2ccccc2C1=O` (stereo not drawn), the inhibition was active: 42.3%. For `CCOC(=O)c1cc(-c2ccccc2)n(CCC(=O)NCCc2ccc(C)cc2)c1C` the value was -7.7%; for `COc1ccc(N2CCN(S(=O)(=O)c3cc(Br)cc4c3N(C(=O)C3CC3)CC4)CC2)cc1`, -11.3%; for `CC(C)(C)OC(=O)N1CCC(c2c(C(=O)N3CCN(c4ccccn4)CC3)cnn2-c2cccc(F)c2)CC1`, -3.06%. For `Cc1ccc(NC(=O)Cn2c(=O)n(Cc3ccco3)c(=O)c3sc4ccccc4c32)c(C)c1` the value was 1.04%; for `Cc1ccc(C(=O)NCC(c2ccco2)S(=O)(=O)c2ccccc2)cc1C` (stereo not drawn), -8.58%. For `COc1cc2c(=O)c(S(=O)(=O)c3ccc(C(C)C)cc3)cn(Cc3ccccc3C)c2cc1OC` the value was -6.14%. On to `CCOC(=O)c1c(C)c(-c2ccccc2)n(CC(=O)NCc2ccccc2)c1C`, for which the inhibition is 15.1%. With `CCOC(=O)c1ccc(NS(=O)(=O)c2ccc3c(c2)CCN3C(=O)CC)cc1`, the inhibition is -4.4%. As for `CCOC(=O)N1CCc2c(sc(NCc3cccs3)c2C(=O)Nc2cc(Cl)ccc2OC)C1`, the inhibition is -10.2%.

`CCN(CC)c1ccc(NC(=O)C2CCN(S(=O)(=O)c3ccc4c(c3)oc(=O)n4C)CC2)c(C)c1`: the inhibition came out at 0.0645%. The result for `Cc1cccc(NC(=O)C(NS(=O)(=O)c2cccc3nsnc23)c2ccccc2)c1C` (stereo not drawn) reads -6.26%; that for `COc1ccccc1N1CCN(C(=O)c2ccc3c(c2)N(Cc2cc(C)ccc2C)C(=O)c2ccccc2S3(=O)=O)CC1`, 2%; that for `COc1ccc(CN(C(=O)c2cc(=O)c3ccccc3o2)C2CCS(=O)(=O)C2)cc1OC` (stereo not drawn), -12.4%. `Cc1cccc(N2CCN(CC3CCCCC3)CC2)c1C`: the inhibition was active: 73.3%. `O=C(Nc1nc(-c2ccccc2)ns1)c1ccc(Cl)cc1`: the inhibition came out at 11.9%.

`Cc1cccc(NC(=O)CCNC(=O)c2ccccc2)c1`: the inhibition was active: 35.5%.

For the compound `COc1cccc(NC(=O)CN2C(=O)CC(c3ccco3)Sc3ccccc32)c1` (stereo not drawn), the inhibition is -3.86%. On to `Cc1cccc(C)c1NC(=O)CN1C(=O)N(C)Cc2ccccc21`, for which the inhibition was active: 44.9%. The result for `COC(=O)c1sc(-c2ccccc2)cc1NC(=O)c1cccc(Cl)c1` reads 6.55%; that for `CC1CCN(CCOc2cccc(Br)c2)CC1`, active: 97.8%; that for `Cc1cccc(C)c1NC(=O)C(=O)NCC(c1cccnc1)N1CCc2ccccc21` (stereo not drawn), 15.1%.

The record behind these values is PubChem BioAssay AID485344 (National Center for Advancing Translational Sciences (NCATS), 2010).
